# Data published in PubChem BioAssay AID540267 (National Center for Advancing Translational Sciences (NCATS), 2011).
# Hit rate of the full screen: of about 340,000 compounds, about 530 (0.16%) were called active. Inconclusive means that the source gave no clear call. Such entries were picked first, then a sample of the others. No stated cut-off is given here; in the data, active means activity change below about -80%; inconclusive means between about -30% and that limit; inactive means weaker than that.
# Experiment: Small Molecules that selectively kill Giardia lamblia: qHTS;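 further: parasites exposed to compound for two days anaerobically before the ATP read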
# Conditions: Giardia lamblia trophozoite viability; at 7.66 µM; active compounds read low
# Summary of the method: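 ATP-content bioluminescence gauges trophozoite survival. Cells (100/well) receive compound and incubate anaerobically for 48 hrs at 37 deg C; detection reagent follows for 15-30 min at room temperature.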
# On the % scale 0 is the no-effect control and ±100 the full control effect.
row,SMILES,activity change
1,COc1ccc(N2CCN(C(=O)COC(=O)[C@@H](NC(=O)c3c(F)cccc3F)C(C)C)CC2)cc1,inconclusive: -34.6% [inhibitor]
2,CCN(C[C@H]1N[C@@](Cc2ccccc2)(C(=O)OC)[C@H]2C(=O)N(Cc3ccccc3)C(=O)[C@@H]12)C(=O)COc1ccccc1,inactive: 3.4%
3,N#C/C(=C/c1ccc(N2CCCCC2)cc1)c1cccc(F)c1,inactive: -17.4%
4,COc1cccc2sc(N3CCN(C(=O)c4ccc([N+](=O)[O-])o4)CC3)nc12,active: -86.9%
5,S=c1[nH]nc(-c2ccco2)n1/N=C/c1ccc(Cl)cc1,inactive: -21%
6,O=C(O)c1ccc(N/N=C/c2ccc(-c3cc(Cl)ccc3Cl)o2)cc1,inconclusive: -39% [inhibitor]
7,O=C(c1cc(-c2ccc(Br)cc2)n[nH]1)N1CCN(C(=O)c2ccccc2Br)CC1,inactive: 38.2%
8,CCOC(=O)c1cc(C#N)c(SCc2cccc3ccccc23)nc1C,inactive: 11.9%
9,CCOc1ccccc1CNS(=O)(=O)c1cnc[nH]1,inconclusive: -30.6% [inhibitor]
10,O=C(O)c1ccc(COc2ccc3ccccc3c2/C=C2/NC(=O)N(c3ccccc3)C2=O)cc1,inactive: -12.6%
11,COc1ccc(CN2C3CCC2CC(NC(=O)c2cc(OC)c(OC)c(OC)c2)C3)cc1 (configuration not stated),inactive: 5%
12,O=C(CSc1nnc(NC(=O)c2ccc(F)cc2)s1)NC1CCCC1,inconclusive: -39.3% [inhibitor]
13,Cc1c(NS(=O)(=O)N2CCCCC2)c(=O)n(-c2ccccc2)n1C,inconclusive: -30.5% [inhibitor]
14,O=C(CCc1ccccc1)N/N=C/c1cccc(O)c1,inconclusive: -44.6% [inhibitor]
15,CC(C)CCn1cnc2c(oc3nc4c(cc32)CCCC4)c1=O,inconclusive: -35% [inhibitor]
16,COc1ccc(NC(=O)c2ccc(C)cc2)cc1,inactive: -23.3%
17,CCC(C)c1ccc(NC(=O)Nc2cccnc2)cc1 (configuration not stated),inconclusive: -52.8% [inhibitor]
18,CC(C)C(=O)C1=Cc2cccc([N+](=O)[O-])c2OC1N1CCOCC1 (configuration not stated),inactive: -8.41%
19,Cc1csc(SC(C)C(=O)NC2CCCCC2C)n1 (configuration not stated),inconclusive: -34.4% [inhibitor]
20,O=C(N/N=C/c1ccc([N+](=O)[O-])o1)c1cc(-c2cccc(Br)c2)nc2ccccc12,active: -85.9%
21,CCOc1ccc(C(=O)N(C)C2CCS(=O)(=O)C2)cc1 (configuration not stated),inconclusive: -31.9% [inhibitor]
22,CN1C[C@@H]2C(c3ccc(Cl)nc3)C3(c4ccccc4)CC2(C3)[C@H]1c1ccccc1 (some centres not stated),inconclusive: -42% [inhibitor]
23,Cc1oc2cc([N+](=O)[O-])c(O)c([N+](=O)[O-])c2c1C(=O)c1ccc(Cl)cc1,inconclusive: -64.7% [inhibitor]
24,CCCc1nc2oc3c(NCCN4CCOCC4)ncnc3c2c2c1CCCC2,inactive: -7.77%
25,Clc1ccc(/C=C/c2nc3ccccc3[nH]2)cc1,inconclusive: -55.6% [inhibitor]
26,O=C(NCc1cccnc1)c1ccc(COc2ccccc2Br)cc1,inconclusive: -42.2% [inhibitor]

row,SMILES,activity change
1,CC(NC(=O)C1CCN(S(=O)(=O)c2cc([N+](=O)[O-])ccc2Cl)CC1)c1ccccc1 (configuration not stated),inconclusive: -41.9% [inhibitor]
2,O=C(Nc1ccn(Cc2ccccc2)n1)c1n[nH]c([N+](=O)[O-])c1Cl,inconclusive: -43.7% [inhibitor]
3,CCOC(=O)c1ccc2c(c1)N(C)C(=O)c1ccccc1S2,inactive: -2.6%
4,Cc1ccn2cc(-c3ccc(NS(=O)(=O)c4ccccc4)cc3)nc2c1,inactive: 6.87%
5,CCN1CCN(c2c(C=O)c(Cl)nc3ccc(OC)cc23)CC1,inconclusive: -34.3% [inhibitor]
6,O=c1c(=NNc2ccccc2Cl)c(=O)c2ccccc12,inconclusive: -40.4% [inhibitor]
7,COc1ccc(OC)c(NC(=O)CCCCCn2nnc3ccccc3c2=O)c1,inconclusive: -38% [inhibitor]
8,CC(CC(=O)Nc1ncc([N+](=O)[O-])s1)c1ccccc1 (configuration not stated),active: -85.5%
9,CCCc1nc2ccccc2c(=O)n1CC(=O)c1ccc(F)cc1,inconclusive: -30.9% [inhibitor]
10,Cc1nc(C)c(C(=O)N2CCCC(C(=O)c3ccc4ccccc4c3)C2)s1 (configuration not stated),inactive: -1.53%
11,O=C1c2ccccc2S(=O)(=O)c2cc(C(=O)N3CCN(c4ccccc4)CC3)ccc21,inactive: 5.73%
12,CCOC(=O)c1cnc2ccc(OCC)cc2c1NCCCN1CCOCC1,inconclusive: -38.5% [inhibitor]
13,O=C(CSc1ccccn1)Nc1ccc2[nH]c(=O)[nH]c2c1,inconclusive: -35.6% [inhibitor]
14,Cc1cnc([N+](=O)[O-])n1CCOC(=O)c1cccc(F)c1,active: -80.7%
15,CC(C(=O)NC1C=CS(=O)(=O)C1)N1C(=O)/C(=C/c2cccc(Cl)c2)SC1=S (configuration not stated),inconclusive: -31% [inhibitor]
16,CCN(Cc1ccccc1)C(=O)COC(=O)c1cc(=O)[nH]c2ccccc12,inconclusive: -30.9% [inhibitor]
17,COc1ccc(C(=O)Nc2ccc3ccccc3n2)c(OC)c1OC,inconclusive: -40.9% [inhibitor]
18,O=C(c1ccc(F)cc1)n1c(=S)nc2ccccn21,inconclusive: -42.6% [inhibitor]
19,CC(C)Cn1[nH]c2c3c(ccc2c1=O)C(=O)c1ccccc1C3=O,inconclusive: -77.8% [inhibitor]
20,CC1(C)SC(=S)N(NC(=O)Nc2cccc3ccccc23)C1N(O)C(=O)Nc1ccccc1 (configuration not stated),inconclusive: -30.3% [inhibitor]
21,CCOc1ccc(Br)cc1C1=NN(C(C)=O)C(c2ccc([N+](=O)[O-])s2)O1 (configuration not stated),inconclusive: -33.7% [inhibitor]
22,CCCC(=O)NCCCc1nc2ccccc2n1CC,inconclusive: -36.8% [inhibitor]
23,O=C1N[C@@H](c2ccccc2)COC(=O)[C@@H](Cc2ccc(F)cc2)CC/C=C/C[C@@H]1CC(=O)N(CCO)Cc1ccccc1,inactive: -7.18%
24,Nc1nc(NCCCN2CCOCC2)nc(Nc2cccc(F)c2)c1[N+](=O)[O-],inactive: -1.5%
25,CC1CCN(C(=O)c2ccccc2NC(=O)c2cccs2)CC1,inconclusive: -39% [inhibitor]
26,CCc1c(C)nc2nc(SCc3ccccc3Cl)[nH]n2c1=O,inconclusive: -33.8% [inhibitor]

row,SMILES,activity change
1,Cc1cc2nc(-c3ccc(SCC(=O)N4CCc5ccccc54)nc3)[nH]c2cc1C,inconclusive: -50.9% [inhibitor]
2,COc1ccc(/C=C/C(=O)O/N=C(\N)c2ccccc2)cc1OC,inconclusive: -35% [inhibitor]
3,O=C(O)c1cc(-c2c[nH]c3ccccc23)nc2ccc3ccccc3c12,inconclusive: -30.6% [inhibitor]
4,CC12CCC(=O)C=C1C(F)CC1C2C(O)CC2(C)C1CCC2(O)C(=O)CO (configuration not stated),inconclusive: -33.7% [inhibitor]
5,O=C(COC(=O)c1cccc(F)c1)Nc1ccc2c(c1)OCCO2,inconclusive: -30.7% [inhibitor]
6,O=C(c1cccc(-n2cccc2)c1)N1CCN(S(=O)(=O)c2ccccc2)CC1,inconclusive: -32.5% [inhibitor]
7,N#CC(C#N)=C1C=CC=CN1/C(=C\c1ccco1)C(=O)c1ccc(-c2ccccc2)cc1,inactive: -17.5%
8,COCCNC(=S)N/N=C(\C)c1ccccc1O,inconclusive: -31.6% [inhibitor]
9,CCCOc1ccc(/C=C/C(=O)N2CCN(c3ccccn3)CC2)cc1,inactive: 12.3%
10,COc1ccc(S(=O)(=O)Oc2cc(C(=S)N3CCOCC3)ccc2OC)cc1,inconclusive: -30.3% [inhibitor]
11,Cc1ccc(S(=O)(=O)NCC(=O)N(CC(=O)NCc2ccccc2)CC2CCCO2)cc1 (configuration not stated),inconclusive: -32.6% [inhibitor]
12,CN(C(=S)NC(=O)c1ccc(F)cc1)C1CCCCC1,inactive: -19.1%
13,CC(C)n1cnc2c(N(C)c3cccc(Cl)c3)nc(N(CCO)CCO)nc21,inconclusive: -39.2% [inhibitor]
14,CCOC(=O)/C(C#N)=C\c1ccc(CC)s1,inactive: -13.5%
15,O=C(N/N=C/c1cc(Cl)c(O)c(Cl)c1)c1cc2c(ccc3ccccc32)o1,inactive: -8.54%
16,CSC1=NCCN1C(=O)Cc1cccc2ccccc12,inconclusive: -38.9% [inhibitor]
17,COc1ccc(C(CNC(=O)c2oc3cc(Br)ccc3c2C)N2CCCCC2)cc1 (configuration not stated),inconclusive: -50.8% [inhibitor]
18,Cc1ccccc1OCC(=O)NCC(=O)OCC(=O)c1ccc2c(c1)CCCC2,inactive: -4.53%
19,Cc1cccc(NC(=O)COc2cccc3c2CCN(C)C3=O)c1C,inconclusive: -30.9% [inhibitor]
20,COc1cc(/C=C/c2ccc3cccc(OC)c3n2)c(OC(C)=O)c([N+](=O)[O-])c1,inconclusive: -68.3% [inhibitor]
21,Cc1ccccc1C1c2[nH]c3ccccc3c2C[C@H]2C(=O)N(c3ccccc3C(=O)NCCN3CCOCC3)C(=O)N12 (some centres not stated),inconclusive: -32.8% [inhibitor]
22,c1ccc2c(c1)OC1OC2Oc2ccccc21,inconclusive: -33.7% [inhibitor]
23,CCOc1ccc(NC(=S)NN(C)C(=S)Nc2ccc(OCC)cc2)cc1,inactive: -11.3%
24,Cc1cc(=O)oc2c(C)c(OCC(=O)N3CCN(c4cccc(Cl)c4)CC3)ccc12,inconclusive: -34% [inhibitor]
25,CC1=C/C(=N\NC(=S)NCCc2ccccc2)CC(C)(C)C1,inactive: -10.7%
